From the supplement of paper PMC9446081
About 220 (0.56%) of roughly 39,000 compounds showed activity. The list shows a part of the results.

Test system: Escherichia coli K-12 BW25113
Assay: relative growth (OD600 normalised to plate interquartile mean) (fraction); higher = less growth inhibition, active = 0.2 or less
Details: 50 µM; LB; incubation time: overnight (16-24 h)
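Note: static incubation at 37 °C against the wild-type strain, values averaged over two biological replicates.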

Row | Structure (SMILES) | relative growth
1 | COc1ccc(COCC23Oc4ccccc4[C@H]([C@H]2COC(=O)NCCCCCC(=O)NO)n2c(c4c(c(C(C)=O)c2=O)C(=O)N(C)C4=O)N3C)cc1 | inactive: 0.996
2 | C=CCOC(=O)[C@@H]1[C@H]2C(=O)O[C@H](c3ccccc3)[C@H](c3ccccc3)N2[C@H](c2ccc(OCCOC(=O)[C@H]3C[C@H]4C(=O)N[C@@H](Cc5ccccc5)C(=O)N4[C@H]3c3ccc(O)cc3)cc2)[C@@]12C(=O)Nc1ccc(I)cc12 | inactive: 1.01
3 | C[C@@H]1CN([C@H](C)CO)S(=O)(=O)c2ccc(C#Cc3ccccc3)cc2O[C@H]1CN(C)C(=O)c1ccccn1 | inactive: 1.02
4 | O=C([C@H]1[C@H](CO)[C@H]2Cn3c(cccc3=O)[C@@H]1N2CC1CCCC1)N1CCOCC1 | inactive: 1.03
5 | O=C(C[C@@H]1C=C[C@H](NC(=O)c2cnccn2)[C@@H](CO)O1)NCc1ccccc1F | inactive: 1
6 | O=c1[nH]nc(N2CCOCC2)c(=O)[nH]1 | inactive: 0.904
7 | COc1ccc(S(=O)(=O)Nc2ccc3c(c2)C(=O)N([C@@H](C)CO)C[C@H](C)[C@@H](CN(C)Cc2ccc4c(c2)OCO4)OCCCC[C@@H](C)O3)cc1 | inactive: 0.987
8 | C[C@H]1CN([C@@H](C)CO)C(=O)Cc2cc(NC(=O)C3CC3)ccc2O[C@H]1CN(C)C(=O)NC1CCCCC1 | inactive: 1.01
9 | C[C@H](CO)N1C[C@H](C)[C@@H](CN(C)C(=O)CCC(F)(F)F)OCCCC[C@H](C)Oc2ccc(NC(=O)Cc3ccccc3)cc2C1=O | inactive: 1.02
10 | CC(=O)N=c1sc(S(N)(=O)=O)nn1C | inactive: 0.974
11 | C[C@@H]1CN([C@H](C)CO)S(=O)(=O)c2ccc(C#CC3(O)CCCC3)cc2O[C@H]1CN(C)C(=O)c1ccncc1 | inactive: 1.01
12 | COc1cccc(-c2ccc3c(c2)O[C@H](CN(C)Cc2cncnc2)[C@@H](C)CN([C@H](C)CO)S3(=O)=O)c1 | inactive: 1.01
13 | C[C@@H]1CN([C@@H](C)CO)C(=O)c2cc(NC(=O)CCC(F)(F)F)ccc2O[C@@H](C)CCCCO[C@H]1CN(C)C(=O)C1CCCCC1 | inactive: 0.964
14 | C[C@@H]1CN([C@H](C)CO)C(=O)CCCn2cc(nn2)CO[C@H]1CN(C)Cc1ccc(C(=O)Nc2ccccc2N)cc1 | inactive: 0.852
15 | C[C@@H]1CCCCO[C@H](CN(C)C(=O)CCC(F)(F)F)[C@@H](C)CN([C@@H](C)CO)C(=O)c2cc(NC(=O)c3ccccc3)ccc2O1 | inactive: 1
16 | CC(C)NC(=O)N(C)C[C@@H]1Oc2ccc(NS(=O)(=O)c3ccccc3)cc2CC(=O)N([C@@H](C)CO)C[C@H]1C | inactive: 0.969
